B1: GBRAP_11_2689 (protein)
chain: KKEKLEEGAKLAEKGAELVERLLREGVDNEELLAELEKTLEELLKLAKKHASPASQKLTEDIKETWKRLLADPENAEEYARELLAGLRVLAGQYLLEIEE
B2: GBRAP_52_6296 (protein)
chain: MREEARKIAEELVELKKKGDEEGLEKKVKEIVEEKSKEFIKLIGEELARMAAESDEETQDIIFEVMELLADELIKGGYDEAFANDLLARVAAAAYQNELR
B3: GBRAP_172_5000 (protein)
chain: GVTLLELDLLGLSREEAVEKAVEAVEKTIKETGNDLVVAVVADDEETVDAVEEAAKKVAAEHGKEVTVVGEAYRSEEDRARVLAAAEAEKIDMEYEKEEE
B4: GBRAP_14_3829 (protein)
chain: MEEIEAVIEEAREDLIELFEEIVPEKAEELAEAVEEVFEELKRRIKETGNVEEAIEEARERLKEEAKKILADEPEEIRNLVLAAIDIEFAELEEEIEELL
B5: GBRAP_35_5566 (protein)
chain: SFDETTAEMVVNTIEALTEAVDDIPPEELKTITEQITKLAEKVIEEIKNNKEALKKILEALEKLAEALKKRGLDDPNVKAAYEAVEETIKKAKEAIKKAE
B6: GBRAP_39_5669 (protein)
chain: EKEEELELLVSYLEGVAAKYLYETGKSLEEALKEAKEILKKYAEEHPELKELVERLLKLADEKGEEAKLVAIGIAEKIKEGLPLEEIKELIEKAVEYFES
B7: GBRAP_160_4468 (protein)
chain: SATVRELVEELRREVEEELERTRDESPEQIATAVAVTIGSHLMEWSENGEISDEQEDVLIEAMDRVRELAREERDASPEEVIRRIREIVEEAARRILELS
B8: GBRAP_184_5033 (protein)
chain: KVLEKEIKAKNKEELEEKLKKLAEEVKGSKADLIVLLDIENPTKEKVKLAIEGLGAIKKAGYVSSVTIGFENELSEELTDVALETADKEGVKVVLPISDE
B9: GBRAP_125_3123 (protein)
chain: SRAADLAALAELLAALGLDAEDVAEAVALAAEFSIRGTLAAVARALGWEELADAIEKLTEEEARAVVREVVARIRAHPELTPEEVRALLLAVAREAVAAA
B10: GBRAP_35_5608 (protein)
chain: DSLKETAEMLVATIEDATLLVPEAPVDTLVAITNSLIESARALIKELTDDKEALEKVIEAMEKLLEALKKHHGDNPKAQEAIKRVEELIKEGRERLKAIK
B11: GBRAP_128_3485 (protein)
chain: SVEEAVERARELMERIKESSLEEVREIARELARLLGEADDEAREAITEVVLERLKELSAEKLEILADVLRELRPELDPLGAEQAAEIEVEALNEAEEKEE
B12: GBRAP_35_5555 (protein)
chain: DSDEEIIEMMTNTAEDALLTIDTIPFDTAFAIVEKIAKAALEILKKEKENVEGMKKLAEAVIEALEALIKRAKAEGAPQEKIDRLEKLLEEIKKELEKIK
B13: GBRAP_184_5267 (protein)
chain: MVKEFEIEASNEEEIKEKLEKIAEEVKDTKADLIISAKIENPTEEKIKTLMETLGKIKEAGYASKITVGIDSELSEEVIDLAFELADKYGINVTVALSEE
B14: GBRAP_184_5307 (protein)
chain: TVLEVTIEADDAETAIKQINAAAAAAKAAGAKLKLTLYLSNVDVEGFKKIADLLKELKDQGILEDAIVHVLDEKTEEEVDKLVKIADEAGVRLVVALSDE
B15: GBRAP_52_6310 (protein)
chain: SAARLRALAEELLALMRAGDREGARALAREAVATLSPEELLALARELARLAAEADEEELDALAELVDILEDVAEEAGVDEEVIAEMLGIVTTALYEAALR
B16: GBRAP_52_6035 (protein)
chain: MEERMRELARRIVELLLAGREEEARRLIREAVETLSEEELKLLGEELARLAREAAPEDLDAIMEAAFLLADALEEGGYDEVLADDLLARVAAAAVANLQA
B17: GBRAP_128_3337 (protein)
chain: VDEEKLEKVEKLVKEIIKADKEEAKKLAEELAELLVELSLEEVEAAAEIIRKYIPKLSAEQLEILADVLRKYLPKFTPEQQLIINDLIVDLLNAAEEKEE
B18: GBRAP_128_3178 (protein)
chain: SVEEVKEETRKKMEEIKNSSPEEAKKIATELFESLLTKSLEEVEAAAEVIEEQLPELSAEHLEILADVGRELLPKYTPEKQEIVAGVIVDALNEAEEKEE
B19: GBRAP_131_3609 (protein)
chain: AKSLLVTIENPKSVEELLAQVDAAIAEARARGADVLVINLVNVTEEQYDAALDHADERQAELEAERGMRLVVLPPGTTLEQAQQVLRALALEVEEEKEEE
B20: GBRAP_78_6652 (protein)
chain: ELEELLDKAIDIVDQAAKAAQQLDADTQNEVLGHLVDAATYLEEARENGGDLENLEKALEHVKKALEILKAQDTEQAKALAKLLEEAIETLEKAIELKKK
B21: GBRAP_160_4657 (protein)
chain: SPEIEKLKEEIEEIFDEAKEMVVGETHEERVAIARVMVGDVVLEASESPEISEEAEDEIDEVGRALVAELEANPDWTDEEVLAAIDEALEKVLEIIEKHS
B22: GBRAP_14_3792 (protein)
chain: MEKIRAILEEMIERIMELIEDLPADLRAALRAALTALADETLARIEATGDLDAAMDEFRERAVAATAEILADLPAETRANAQAIVATEADNAEVEIDEAA
B23: GBRAP_160_4577 (protein)
chain: SEEMEKLIKEIKEITEETLEWLDDETYEQRKAIVRVTVGDILLLLEENPEVSEELLEEAAKLGDELIATIDANPDLTAEEIKKLVKEMTEKIIKLIKEES
B24: GBRAP_52_6034 (protein)
chain: MRERMRRLAEEAVALALAGDEEGAKALIKEAVETLSEEELKLLGEELARLAREAAPEDLDAIMEVAFWLADALIEAGYDEVFADDLEARVARAAVENLQA
B25: GBRAP_78_6574 (protein)
chain: EIEKLIDEAIEHLNRAATALAALNTPEAQDILAEVVDALSYLLEAEENGFDLELLEKAKKHVEKAIELVDKVPKPEYEAIRKELEEALKLLEEAIKLVKE
B26: GBRAP_52_5939 (protein)
chain: MEEEIRRLVDELIALVKAGKLEEARALAREIVETWSDEELRRFIDVLAERARTAPLEDLPYILELAEIFAEELEEAGRDEVLADELLARVSAAAYENEQK
B27: GBRAP_52_5896 (protein)
chain: KAEEVLELLKKAVDAVEAGKLEEARKYIREAVKVAVELSEEEIREVAREAAKYAAEKSPEVFERFLELVLELLDEEEDLTEDEEAVLEILAAELARIYLA
B28: GBRAP_184_5196 (protein)
chain: KITEVELKAENLEEVKEKMEEVLEIAKKEKAELLLILDLKEVTLEMAEVIMNTLKEIKEKGYSPKITLEVVGKMSEEVIDKLIELADEAGVNLTLALDEE
B29: GBRAP_160_4482 (protein)
chain: SEKLEKAKEEVKELIEEMVEALLETKDDSRLGIARAYAGDIVETALELGVISEEEAEELLKLAEEGFEKIVKALEEGEEAMKKAAEELKKKIFEFLEKKS

Whole data set: some 4,500 sequences, median “median log2 fold change of GCK-ALFA target abundance (FLAG IP / Myc IP barcode read proportion)” near 0.078, cut for the lowest 2% near -0.6. The list shows a part of the results.

In this experiment the target is GABARAP, O95166. Put plainly: median log2 fold change of GCK-ALFA target abundance (FLAG IP / Myc IP barcode read proportion) (log2 ratio); each designed protein is fused to an ALFA-tag nanobody in HEK293 cells to bring the named protein to FLAG-tagged glucokinase (GCK); Myc marks an untargeted standard; higher = target protein stabilised (more abundant). As to conditions: target protein: 3xFLAG-MCP-GCK-ALFA reporter; HEK293 landing pad (RPLP). In outline: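 Sequencing of reverse-transcribed, amplified circular RNA barcodes from anti-FLAG and anti-Myc immunoprecipitates provided the readout for an ALFA-nanobody-fused binder library recombined into HEK293 landing-pad cells. Those cells were induced with 2 μg mL^−1 doxycycline, transfected with a plasmid expressing a FLAG-tagged target and a Myc-tagged standard, and lysed after 48 h. Target abundance is the per-binder median log2 ratio of FLAG to Myc barcode read proportions. Only barcodes at a proportion of ≥10^−7 in both replicates and binders with ≥3 barcodes per replicate were kept, with a 10^−6 pseudocount added before the two replicates were pooled.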
Chain of GABARAP, O95166 (O95166 whole entry, the tested form may be a part): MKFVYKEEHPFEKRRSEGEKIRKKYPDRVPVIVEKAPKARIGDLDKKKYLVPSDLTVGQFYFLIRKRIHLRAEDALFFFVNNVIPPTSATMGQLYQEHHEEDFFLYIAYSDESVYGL
For the molecule B1, the “median log2 fold change” value amounted to 0.195.
Turning to B2, the “median log2 fold change” value stood at 0.199.
For B3 the value was 0.114; for B4, -0.798; for B5, 0.0525.
For B6, the “median log2 fold change” value is 0.128.
Consider B7, for which the “median log2 fold change” value came to 0.24.
In the case of B8, the “median log2 fold change” value is -0.000909.
For B9 the value was -0.572.
In the case of B10, the “median log2 fold change” value is -0.472.
With B11 the figure was 0.0482; with B12, 0.0546.
For B13, the “median log2 fold change” value worked out at 0.0951.
As to B14, the “median log2 fold change” value was -0.0236.
With B15, the “median log2 fold change” value was -0.0944.
Consider B16, for which the “median log2 fold change” value is -0.612.
With B17, the “median log2 fold change” value was 0.23.
Turning to B18, the “median log2 fold change” value was 0.192.
With B19 the figure was 0.0501; with B20, 0.22; with B21, -0.153.
With B22 the figure was 0.203.
For the molecule B23, the “median log2 fold change” value is -0.0624.
For the molecule B24, the “median log2 fold change” value was -0.573.
For B25 the value was 0.172; for B26, -0.119.
With B27 the figure was -0.14; with B28, 0.0214; with B29, 0.259.
